{"source": "a collection of fitness landscapes (doi:10.1016/j.celrep.2020.107928)", "parents": {"B1": {"name": "Caulobacter ParB omega fusion; a variant is named by its letters at X, in order, B8GW30 (parent)", "chain": "MESVVVGEPGMSEGRRGLGRGLSALLGEVDAAPAQAPGEQLGGSREAPIEILQRNPDQPRRTFREEDLEDLSNSIREKGVLQPILVRPSPDTAGEYQIVAGERAWRAAQRAGLKTVPIMVRELDDLAVLEIGIIENVQRADLNVLEEALSYKVLMEKFERTQENIAQTIGKSXSHVANXMRLLXLPDEVQSYLVSGELTAXHARAIAAAADPVALAKQIIEGGLSVRETEALARKAPNLSAGKSKGGRPPRVKDTDTQALESDLSSVLGLDVSIDHRGSTGTLTITYATLEQLDDLCNRLTRGI"}}, "note": "Whole data set: some 81,000 sequences, median “one-hybrid fitness for binding parS DNA” near -0.17, cut for the highest 2% near 0.51. This is one part of the list.", "data": [{"variants_of": "B1", "test": "one-hybrid fitness for binding parS DNA (scaled: cognate 1, non-cognate 0); higher = stronger binding", "details": "with parS DNA site", "procedure,_shortened": "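The reporter was HIS3, with the binding site 19 bp from the promoter, in E. coli USO used for bacterial one-hybrid selection of Caulobacter ParB libraries with four specificity codons randomised. Growth was on M9 lacking histidine, with 0.1 mM IPTG and 5 mM 3-AT, for 48 hours at 37°C. Illumina sequencing covered plasmids before and after selection; three replicate libraries were pooled and variants with under 10 reads dropped. A fitness score is the log change in variant-to-wild-type read ratio, rescaled to the cognate and non-cognate references.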", "values": [{"variant": "ERDC", "one-hybrid fitness for binding parS DNA": "≤ 0.2"}, {"variant": "CPAS", "one-hybrid fitness for binding parS DNA": "≤ 0.2"}, {"variant": "QIHA", "one-hybrid fitness for binding parS DNA": "≤ 0.2"}, {"variant": "FWNV", "one-hybrid fitness for binding parS DNA": "≤ 0.2"}, {"variant": "AAPM", "one-hybrid fitness for binding parS DNA": "≤ 0.2"}, {"variant": "SIFR", "one-hybrid fitness for binding parS DNA": "≤ 0.2"}, {"variant": "DAVF", "one-hybrid fitness for binding parS DNA": "≤ 0.2"}, {"variant": "FTSS", "one-hybrid fitness for binding parS DNA": "≤ 0.2"}, {"variant": "PYVN", "one-hybrid fitness for binding parS DNA": "≤ 0.2"}, {"variant": "CQDS", "one-hybrid fitness for binding parS DNA": "≤ 0.2"}, {"variant": "WKMS", "one-hybrid fitness for binding parS DNA": "≤ 0.2"}, {"variant": "QSCV", "one-hybrid fitness for binding parS DNA": "≤ 0.2"}, {"variant": "AYNK", "one-hybrid fitness for binding parS DNA": "≤ 0.2"}, {"variant": "AARE", "one-hybrid fitness for binding parS DNA": "≤ 0.2"}, {"variant": "QQCL", "one-hybrid fitness for binding parS DNA": "≤ 0.2"}, {"variant": "VPIG", "one-hybrid fitness for binding parS DNA": "≤ 0.2"}, {"variant": "QPPL", "one-hybrid fitness for binding parS DNA": "≤ 0.2"}, {"variant": "TPKA", "one-hybrid fitness for binding parS DNA": "≤ 0.2"}, {"variant": "RQPP", "one-hybrid fitness for binding parS DNA": "≤ 0.2"}, {"variant": "FRKH", "one-hybrid fitness for binding parS DNA": 0.307}, {"variant": "HPCF", "one-hybrid fitness for binding parS DNA": "≤ 0.2"}, {"variant": "EGKW", "one-hybrid fitness for binding parS DNA": "≤ 0.2"}, {"variant": "IMNW", "one-hybrid fitness for binding parS DNA": "≤ 0.2"}, {"variant": "GDER", "one-hybrid fitness for binding parS DNA": "≤ 0.2"}, {"variant": "SFQM", "one-hybrid fitness for binding parS DNA": "≤ 0.2"}, {"variant": "QMPC", "one-hybrid fitness for binding parS DNA": "≤ 0.2"}, {"variant": "PCIL", "one-hybrid fitness for binding parS DNA": "≤ 0.2"}, {"variant": "CVYT", "one-hybrid fitness for binding parS DNA": "≤ 0.2"}, {"variant": "DGSG", "one-hybrid fitness for binding parS DNA": "≤ 0.2"}, {"variant": "RQWN", "one-hybrid fitness for binding parS DNA": 0.286}, {"variant": "RMFI", "one-hybrid fitness for binding parS DNA": "≤ 0.2"}, {"variant": "GPTF", "one-hybrid fitness for binding parS DNA": "≤ 0.2"}, {"variant": "EAAW", "one-hybrid fitness for binding parS DNA": "≤ 0.2"}, {"variant": "PSNY", "one-hybrid fitness for binding parS DNA": "≤ 0.2"}, {"variant": "TNIT", "one-hybrid fitness for binding parS DNA": "≤ 0.2"}, {"variant": "CHSN", "one-hybrid fitness for binding parS DNA": "≤ 0.2"}, {"variant": "TLFI", "one-hybrid fitness for binding parS DNA": "≤ 0.2"}, {"variant": "CGCT", "one-hybrid fitness for binding parS DNA": "≤ 0.2"}, {"variant": "KRQD", "one-hybrid fitness for binding parS DNA": "≤ 0.2"}, {"variant": "THLP", "one-hybrid fitness for binding parS DNA": "≤ 0.2"}, {"variant": "VYEP", "one-hybrid fitness for binding parS DNA": "≤ 0.2"}, {"variant": "QTRC", "one-hybrid fitness for binding parS DNA": "≤ 0.2"}, {"variant": "TFKR", "one-hybrid fitness for binding parS DNA": "≤ 0.2"}, {"variant": "PGKI", "one-hybrid fitness for binding parS DNA": "≤ 0.2"}, {"variant": "IPGI", "one-hybrid fitness for binding parS DNA": "≤ 0.2"}, {"variant": "RVFT", "one-hybrid fitness for binding parS DNA": 0.917}, {"variant": "RYFV", "one-hybrid fitness for binding parS DNA": "≤ 0.2"}, {"variant": "MPNK", "one-hybrid fitness for binding parS DNA": "≤ 0.2"}, {"variant": "LDLD", "one-hybrid fitness for binding parS DNA": "≤ 0.2"}, {"variant": "TWYM", "one-hybrid fitness for binding parS DNA": "≤ 0.2"}, {"variant": "AEPG", "one-hybrid fitness for binding parS DNA": "≤ 0.2"}, {"variant": "QDMT", "one-hybrid fitness for binding parS DNA": "≤ 0.2"}, {"variant": "YKCT", "one-hybrid fitness for binding parS DNA": "≤ 0.2"}, {"variant": "QFRR", "one-hybrid fitness for binding parS DNA": "≤ 0.2"}, {"variant": "KQNR", "one-hybrid fitness for binding parS DNA": "≤ 0.2"}, {"variant": "AKHL", "one-hybrid fitness for binding parS DNA": "≤ 0.2"}, {"variant": "QGWG", "one-hybrid fitness for binding parS DNA": "≤ 0.2"}, {"variant": "STHT", "one-hybrid fitness for binding parS DNA": "≤ 0.2"}, {"variant": "NEQT", "one-hybrid fitness for binding parS DNA": "≤ 0.2"}, {"variant": "IRLL", "one-hybrid fitness for binding parS DNA": "≤ 0.2"}, {"variant": "KKQA", "one-hybrid fitness for binding parS DNA": "≤ 0.2"}, {"variant": "SERY", "one-hybrid fitness for binding parS DNA": "≤ 0.2"}, {"variant": "HATK", "one-hybrid fitness for binding parS DNA": "≤ 0.2"}, {"variant": "TNMR", "one-hybrid fitness for binding parS DNA": "≤ 0.2"}, {"variant": "YGRH", "one-hybrid fitness for binding parS DNA": "≤ 0.2"}, {"variant": "KTPW", "one-hybrid fitness for binding parS DNA": "≤ 0.2"}, {"variant": "WSFG", "one-hybrid fitness for binding parS DNA": "≤ 0.2"}, {"variant": "PRTA", "one-hybrid fitness for binding parS DNA": "≤ 0.2"}, {"variant": "NVPC", "one-hybrid fitness for binding parS DNA": "≤ 0.2"}, {"variant": "AYVV", "one-hybrid fitness for binding parS DNA": "≤ 0.2"}, {"variant": "TCDY", "one-hybrid fitness for binding parS DNA": "≤ 0.2"}, {"variant": "PTAQ", "one-hybrid fitness for binding parS DNA": "≤ 0.2"}, {"variant": "KSPP", "one-hybrid fitness for binding parS DNA": "≤ 0.2"}, {"variant": "KHNY", "one-hybrid fitness for binding parS DNA": "≤ 0.2"}, {"variant": "QTCP", "one-hybrid fitness for binding parS DNA": "≤ 0.2"}, {"variant": "VYTR", "one-hybrid fitness for binding parS DNA": "≤ 0.2"}, {"variant": "LTPD", "one-hybrid fitness for binding parS DNA": "≤ 0.2"}, {"variant": "HLPY", "one-hybrid fitness for binding parS DNA": "≤ 0.2"}, {"variant": "DYHT", "one-hybrid fitness for binding parS DNA": "≤ 0.2"}, {"variant": "SKYF", "one-hybrid fitness for binding parS DNA": "≤ 0.2"}, {"variant": "RRHL", "one-hybrid fitness for binding parS DNA": "≤ 0.2"}, {"variant": "DDML", "one-hybrid fitness for binding parS DNA": "≤ 0.2"}, {"variant": "GCNM", "one-hybrid fitness for binding parS DNA": "≤ 0.2"}, {"variant": "VGGT", "one-hybrid fitness for binding parS DNA": "≤ 0.2"}, {"variant": "IAKM", "one-hybrid fitness for binding parS DNA": "≤ 0.2"}, {"variant": "YRGN", "one-hybrid fitness for binding parS DNA": "≤ 0.2"}, {"variant": "TGLC", "one-hybrid fitness for binding parS DNA": "≤ 0.2"}, {"variant": "PTSP", "one-hybrid fitness for binding parS DNA": "≤ 0.2"}, {"variant": "QMVC", "one-hybrid fitness for binding parS DNA": "≤ 0.2"}, {"variant": "YDRW", "one-hybrid fitness for binding parS DNA": "≤ 0.2"}, {"variant": "HAYM", "one-hybrid fitness for binding parS DNA": "≤ 0.2"}, {"variant": "ASLM", "one-hybrid fitness for binding parS DNA": "≤ 0.2"}, {"variant": "CFND", "one-hybrid fitness for binding parS DNA": "≤ 0.2"}, {"variant": "LFPA", "one-hybrid fitness for binding parS DNA": "≤ 0.2"}, {"variant": "RTSR", "one-hybrid fitness for binding parS DNA": "≤ 0.2"}, {"variant": "RCDC", "one-hybrid fitness for binding parS DNA": 0.877}, {"variant": "MIKR", "one-hybrid fitness for binding parS DNA": "≤ 0.2"}, {"variant": "QNSH", "one-hybrid fitness for binding parS DNA": "≤ 0.2"}, {"variant": "QTDH", "one-hybrid fitness for binding parS DNA": "≤ 0.2"}, {"variant": "PMHS", "one-hybrid fitness for binding parS DNA": "≤ 0.2"}, {"variant": "ITER", "one-hybrid fitness for binding parS DNA": "≤ 0.2"}, {"variant": "TTCG", "one-hybrid fitness for binding parS DNA": "≤ 0.2"}, {"variant": "RIYP", "one-hybrid fitness for binding parS DNA": 0.203}, {"variant": "YMNL", "one-hybrid fitness for binding parS DNA": "≤ 0.2"}, {"variant": "CAGE", "one-hybrid fitness for binding parS DNA": "≤ 0.2"}, {"variant": "GCPV", "one-hybrid fitness for binding parS DNA": "≤ 0.2"}, {"variant": "ITCG", "one-hybrid fitness for binding parS DNA": "≤ 0.2"}, {"variant": "DCMG", "one-hybrid fitness for binding parS DNA": "≤ 0.2"}, {"variant": "YYNR", "one-hybrid fitness for binding parS DNA": "≤ 0.2"}, {"variant": "VQIL", "one-hybrid fitness for binding parS DNA": "≤ 0.2"}, {"variant": "QNIA", "one-hybrid fitness for binding parS DNA": "≤ 0.2"}, {"variant": "TSEE", "one-hybrid fitness for binding parS DNA": "≤ 0.2"}, {"variant": "SSEL", "one-hybrid fitness for binding parS DNA": "≤ 0.2"}, {"variant": "TVPV", "one-hybrid fitness for binding parS DNA": "≤ 0.2"}, {"variant": "LPCK", "one-hybrid fitness for binding parS DNA": "≤ 0.2"}, {"variant": "ERSY", "one-hybrid fitness for binding parS DNA": "≤ 0.2"}, {"variant": "EVIG", "one-hybrid fitness for binding parS DNA": "≤ 0.2"}, {"variant": "EILV", "one-hybrid fitness for binding parS DNA": "≤ 0.2"}, {"variant": "KLSR", "one-hybrid fitness for binding parS DNA": "≤ 0.2"}, {"variant": "NQSI", "one-hybrid fitness for binding parS DNA": "≤ 0.2"}, {"variant": "VLKG", "one-hybrid fitness for binding parS DNA": "≤ 0.2"}, {"variant": "QVWG", "one-hybrid fitness for binding parS DNA": "≤ 0.2"}, {"variant": "HCIL", "one-hybrid fitness for binding parS DNA": "≤ 0.2"}, {"variant": "WRSA", "one-hybrid fitness for binding parS DNA": "≤ 0.2"}, {"variant": "PLGE", "one-hybrid fitness for binding parS DNA": "≤ 0.2"}, {"variant": "KRNC", "one-hybrid fitness for binding parS DNA": "≤ 0.2"}, {"variant": "HGWF", "one-hybrid fitness for binding parS DNA": "≤ 0.2"}, {"variant": "PHEL", "one-hybrid fitness for binding parS DNA": "≤ 0.2"}, {"variant": "YVGA", "one-hybrid fitness for binding parS DNA": "≤ 0.2"}, {"variant": "CRHN", "one-hybrid fitness for binding parS DNA": "≤ 0.2"}, {"variant": "SQLM", "one-hybrid fitness for binding parS DNA": "≤ 0.2"}, {"variant": "YKDH", "one-hybrid fitness for binding parS DNA": "≤ 0.2"}, {"variant": "LCAK", "one-hybrid fitness for binding parS DNA": "≤ 0.2"}, {"variant": "DHRK", "one-hybrid fitness for binding parS DNA": "≤ 0.2"}, {"variant": "CPYC", "one-hybrid fitness for binding parS DNA": "≤ 0.2"}, {"variant": "VASD", "one-hybrid fitness for binding parS DNA": "≤ 0.2"}, {"variant": "RPEW", "one-hybrid fitness for binding parS DNA": "≤ 0.2"}, {"variant": "DAHN", "one-hybrid fitness for binding parS DNA": "≤ 0.2"}, {"variant": "RAWI", "one-hybrid fitness for binding parS DNA": "≤ 0.2"}, {"variant": "LASE", "one-hybrid fitness for binding parS DNA": "≤ 0.2"}, {"variant": "EDIG", "one-hybrid fitness for binding parS DNA": "≤ 0.2"}, {"variant": "NIMG", "one-hybrid fitness for binding parS DNA": "≤ 0.2"}, {"variant": "FSVS", "one-hybrid fitness for binding parS DNA": "≤ 0.2"}, {"variant": "YPYF", "one-hybrid fitness for binding parS DNA": "≤ 0.2"}, {"variant": "YHPL", "one-hybrid fitness for binding parS DNA": "≤ 0.2"}, {"variant": "SHKL", "one-hybrid fitness for binding parS DNA": "≤ 0.2"}, {"variant": "KFKS", "one-hybrid fitness for binding parS DNA": "≤ 0.2"}, {"variant": "PMYW", "one-hybrid fitness for binding parS DNA": "≤ 0.2"}, {"variant": "WQYS", "one-hybrid fitness for binding parS DNA": "≤ 0.2"}, {"variant": "GPRS", "one-hybrid fitness for binding parS DNA": "≤ 0.2"}, {"variant": "PPTL", "one-hybrid fitness for binding parS DNA": "≤ 0.2"}, {"variant": "NIAE", "one-hybrid fitness for binding parS DNA": "≤ 0.2"}, {"variant": "NKRC", "one-hybrid fitness for binding parS DNA": "≤ 0.2"}]}]}
